The source gives no read counts; variants with many changes may rest on few reads.

Self-cleavage data for 21 variants are collected here from the RNAGym collection of RNA variant scans (doi:10.7554/elife.90254).

The labels stand for the following.
B1: OR4K15 (parent)
chain: GUUAACGGUCAUAGGCCAUGGAAACUAGGAGCACCAUUUCGCUGCCAGUGAAGAAAUGAACAAAGAAAAUCUGGGCCAGGCAGGCAUCAAAAGAAAUAGUCUUGCGCUCAACCAGAAAGUCUGUAAUCAUUUUAAGGGUA

In the data set the parent is B1. In words: self-cleavage, relative activity (ratio to wild type); higher = more cleavage; in vitro, sequencing; the parent is a self-cleaving ribozyme.
In the case of GUUAACGGUCGAAGGCCAUGGAAACUAGGAGCACCAUUUCGCUGCCAGUGAAGAAAUGAACGAAGAAAAUCUGGGCCAGGCAGGCAUCAAAAGAAAUAGUCUUGCGCUCAACCAGAAAGUCUGUGAUCAUUUUAAGGGUA, the self-cleavage stood at 0.57.

Turning to GUUAACGGUCGUAGGCCAUGGAAACUAGGAGCACCACUCCGCUGCCAGUGAUGAAAUGAACAAAGAAAAUCUGGGCCAGGCAGGCAUCAAAAGAAAUAGUCUUGCGCCCAACCAGAAAGUCUGUAAUCAUUUUAAGGGCA, the self-cleavage turned out to be 0.03.

With GUUAACGGUCGUAGACCAUGGAAACUAGGAGCACCAUUUCGCUGCCAGUGAAGAAAUGAACAAAGAAAAUCUGGGCCAGGCAGGCUUCAAAAGAAAUUGUCUUGCGCUCAACCAGAAAGUCUGUAGUCAUUUUAAGGGUA, the self-cleavage came out at 1.05.

Take GUUAACGGUCGUAGGCCACGGAAACUAGGAGCACCAUCUCGCUGCCAGUGAGGAAAUGAACAGAGAAAAUCUGGGCCAGGCAGGCAUCAAAAGAAAUAGUCUUGCGCUCAACCAGAAAGUCUGUAAUCAUUUUAAGGGUA: the self-cleavage was determined as 1.07.

As for GUUAACGGUCGUAGACCAUGGGAGCUAGGAGCACCAUUUCGCUGCCAGUGAAGAAAUGAACAAAGAAAAUCUGGGCCAGGCAGGCAUCAAAAGAAAUAGUCUUGCGCUCAACCAGAAAGUCUGUAAUCAUUUUAAGGGUA, the self-cleavage turned out to be 1.15.

In the case of GUUAACGGUCGUAGGCCAUGGAAACUAGGAGCACCAUCUCGCUGCCAGUGAAGAAAUGAACAAAGAAAAUCUGGGCCAGGCAGGCAUCAAAAGAAAUAGUCUUGCGCUCAACCAGAAAGCCUGUAAUCAUUUUAAGGGUA, the self-cleavage is 0.78.

For GUUAACGGUCGUAGGCCAUGGAAACUAGGAGCACCAUUUCGCUGCCAGUGAAGAAAUGAACAAAGAAAAUCUGGGCCAGGCAGGCAUCAAAAGAAAUAGUCUUGCGCUCAACCAUAAAGUCUGUAAUCACUUUAAGGGUA, the self-cleavage amounted to 0.05.

For GUUAACGGUCGUAGGCCAUGGAAACUAGGAGCACCAUUUCGCUGCCAGUGAAGAAAUUAACAAAGAAAAUCUGGGCCAGGCAGUCAUCAAAAGAAAUAGUCUUGCGCUCAACCAGAAAGUCUGUAAUCAUUUUAAGGGUA, the self-cleavage was found to be 0.23.

In the case of GUUAACGGUCGUAGGCCAUGGAAACUAGGAGCACCACUUCGCUGCCAGUGAAGAAAUGAACAAAGAAGAUCUGGGCCAGGCGGGCAUCAAAAGAAAUAGUCUUGCGCUCGGCCAGAAAGUCUGUAACCAUUUUAAGGGUA, the self-cleavage is 0.02.

GUUAACGGUCGUAGGCCAUGGAAACUAGGAGCACCAUUUCGCUGCCAGUGAAGAAAUGAACAAAGAAAAUCUGGGCCAGGCAGGCAUCAAAAGAAAUAGUCUUGCGCUCAACCAGAGAGUCUGUAAUCAUCUUAAGGGUA: the self-cleavage came out at 1.18.

On to GUUAACGGUCGUAGGCCACGGAAACUAGGAGCACCAUUUCGCUGCCAGUGUAGAAAUGAACAAAGAAAAUCUGGGCCAGGCAGGCGUCAAAAGAAAUGGUCUUGCGCUCAACCAGAAAGUCUGUAAUCAUUUUAAGGGUA, for which the self-cleavage was 0.61.

For GUUAACGGUCGUAGGCCAUGGAAACUAGGAGCACCAUUUCGCUGCCAGUGAAGAAAUGAACAAAGAAAAUCUGGGCCAGGCAGGCAUCAAAAGAAAUAGUCUUGCGCUCAACCAGAGAGUCUGUAAUCUUUUUAAGGGUA, the self-cleavage is 0.86.

On to GUUAACGGUCGUAGGCCAUGGAAACUAGGAGCACCAUUUCGCUGCCAGUGAAGAAAUGAACAAAGAAAAUCUGGGCCAGGCAGGCAUCAAAAGAAGUAGUCUUGCGCCCAACCAGAAAAUCUGUAGUCAUUUUAAGGGUA, for which the self-cleavage is 0.01.

As for GUUAACGGUCGUAGGCCACGGAAACUAGGAGCACCAUUUCGCUGCCAGUGAAGAAAUGAACAAAGAAAAUCUGGGCCAGGCAGGCAUCAAAAGAAAUAGUCUUGCGCUCAGCCAGAAAGUCUGUGAUCAUUUUAAGGGUA, the self-cleavage was determined as 0.01.

With GUUAACGGUCGCAGGCCAUGGGACCUAGGAGCACCAUUUCGCUGCCAGUGAAGAAAUGAACAAAGAAAGUCUGGGCCAGGCAGGCAUCAAAAGAAGUAGACUUGCGCUCAACCAGAAAGUCUGUAAUCAUUUUAAGGGUA, the self-cleavage came to 0.24.

GUUAACGGUCGUAGGCCAUGGAAACUAGGAGCACCAUUUCGCUGCCAGUGAAGAAAUGAACAAAGAAAAUCUGGGCCAGGCAGGCAUCAAAAGAAAUUGUCUUGCGCUCAUCCAGAAAGUCUGUAAUCAUUUUAAGGGUA: the self-cleavage was found to be 0.18.

GUUAACGGUCGUAGGCCAUGGAAACAAGGAGCACCAUUUCGCUGCCAGUGAAGAAAUGAACAAAGAAAAUCUGGGCCUGGCAGGCAUCAAAAGAAAUAGUCUCGCGCUCAACCAGAAAGUCUGUAAUCAUUUUAAGGGUA: the self-cleavage is 0.04.

Regarding GUUAACGGUCGUAGGCCAAGGAAACUAGGAGCACCAUUUCGCUGCCAGUGAAGAAAUGAACAAAGAAAAUCUGGGCCAGGCAGGCAUCAAAAGAAAUAGUCUUGCGCUCAGCCAGAAAGUCUGUAAUCAUUUUAAGGGUA, the self-cleavage came to 0.04.

GUUAACGGUCGUAGGCCAUGGAAACUAGGAGCACCAUUUGGCUGCCAGUGAAGGAAUGAACAAAGAAUAUCUGGGCCAGGCAGGCAUCAAAAGAAAUAGUCUUGCGCUCAACCAGAAAGUCUGUAAUCAUUUUAAGGGUA: the self-cleavage stood at 1.59.

GUUAACGGUCGUAGGCCAUGGAAACUAGGAGCACCAUCUCGCUGCCAGUGUAGAAAUGAACGAAGAAAAUCUAGGCCAGGCAGGCACCAAAAGAAAUAGUCUUGCGCUCAACCAGAAAGUCUGUAAUCAUUUUAAGGGUA: the self-cleavage is 0.19.

For GUUAACGGUCGUAGGCCACGGAGACUAGGAGCACCAUUCCGCUGCCAGGGAAGAAAUGAACAAAGAAAGUCUGGGCCAGGCAGGCAUCAAAAGAAAUAGUCUUGCGCUCAACCAGAAAGUCUGUAAUCAUUUUAAGGGUA, the self-cleavage was 1.13.
